Test results as given in the supplement of paper PMC8728848.
The list shows a part of the results.

How the values were obtained:
Test in all cases: glycan array binding signal (z-score within array); higher = stronger binding
Details in all cases: glycan notation: IUPAC condensed, linker removed
Gal(a1-4)Gal(b1-4)GlcNAc = target: Gal(a1-4)Gal(b1-4)GlcNAc
How it was run: (§1)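 Glycan array data were curated from 3228 arrays in the Consortium for Functional Glycomics database and kept only where the protein sequence was available. Glycan names were converted to IUPAC-condensed notation, and columns mapping to the same glycan were averaged. The binding signal is a within-array Z-score, averaged across arrays of the same protein sequence at different concentrations or buffers and across linkers. Negative Z-scores can be read as non-binding.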

[1] = target: Gal(a1-4)Gal(b1-4)GlcNAc(b1-2)Man(a1-3)[Gal(a1-4)Gal(b1-4)GlcNAc(b1-2)Man(a1-6)]Man(b1-4)GlcNAc(b1-4)GlcNAc
How it was run: as §1

[2] = target: Gal(a1-4)Gal(b1-4)GlcNAc(b1-3)Gal(b1-4)Glc
How it was run: as §1

Gal(a1-4)GlcNAc = target: Gal(a1-4)GlcNAc
How it was run: as §1

Gal(a1-6)Glc = target: Gal(a1-6)Glc
How it was run: as §1

Gal(b1-2)Gal = target: Gal(b1-2)Gal
How it was run: as §1

Gal(b1-3)Gal = target: Gal(b1-3)Gal
How it was run: as §1

Gal(b1-3)Gal(b1-4)GlcNAc = target: Gal(b1-3)Gal(b1-4)GlcNAc
How it was run: as §1

[3] = target: Gal(b1-3)Gal(b1-4)GlcNAc(b1-2)Man(a1-3)[Gal(b1-3)Gal(b1-4)GlcNAc(b1-2)Man(a1-6)]Man(b1-4)GlcNAc(b1-4)GlcNAc
How it was run: as §1

Gal(b1-3)GalNAc = target: Gal(b1-3)GalNAc
How it was run: as §1

[4] = target: Gal(b1-3)GalNAc(a1-3)[Fuc(a1-2)]Gal(b1-4)Glc
How it was run: as §1

[5] = target: Gal(b1-3)GalNAc(a1-3)[Fuc(a1-2)]Gal(b1-4)GlcNAc
How it was run: as §1

[6] = target: Gal(b1-3)GalNAc(b1-3)Gal(a1-4)Gal(b1-4)Glc
How it was run: as §1

[7] = target: Gal(b1-3)GalNAc(b1-4)Gal(b1-4)Glc
How it was run: as §1

[8] = target: Gal(b1-3)GalNAc(b1-4)[Neu5Ac(a2-3)]Gal(b1-4)Glc
How it was run: as §1

Gal(b1-3)GlcNAc = target: Gal(b1-3)GlcNAc
How it was run: as §1

[9] = target: Gal(b1-3)GlcNAc(a1-3)Gal(b1-4)GlcNAc
How it was run: as §1

[10] = target: Gal(b1-3)GlcNAc(a1-6)Gal(b1-4)GlcNAc
How it was run: as §1

[11] = target: Gal(b1-3)GlcNAc(b1-2)Man(a1-3)[Gal(b1-3)GlcNAc(b1-2)Man(a1-6)]Man(b1-4)GlcNAc(b1-4)GlcNAc
How it was run: as §1

[12] = target: Gal(b1-3)GlcNAc(b1-2)Man(a1-3)[Gal(b1-3)GlcNAc(b1-2)Man(a1-6)]Man(b1-4)GlcNAc(b1-4)[Fuc(a1-6)]GlcNAc
How it was run: as §1

[13] = target: Gal(b1-3)GlcNAc(b1-2)Man(a1-3)[GlcNAc(b1-4)][Gal(b1-3)GlcNAc(b1-2)Man(a1-6)]Man(b1-4)GlcNAc(b1-4)GlcNAc
How it was run: as §1

[14] = target: Gal(b1-3)GlcNAc(b1-2)[Gal(b1-3)GlcNAc(b1-6)]Man(a1-6)[Gal(b1-3)GlcNAc(b1-2)Man(a1-3)]Man(b1-4)GlcNAc(b1-4)GlcNAc
How it was run: as §1

[15] = target: Gal(b1-3)GlcNAc(b1-3)Gal(b1-3)GlcNAc
How it was run: as §1

[16] = target: Gal(b1-3)GlcNAc(b1-3)Gal(b1-4)Glc
How it was run: as §1

[17] = target: Gal(b1-3)GlcNAc(b1-3)Gal(b1-4)GlcNAc
How it was run: as §1

[18] = target: Gal(b1-3)GlcNAc(b1-3)Gal(b1-4)GlcNAc(b1-6)[Gal(b1-3)GlcNAc(b1-3)]Gal(b1-4)Glc
How it was run: as §1

[19] = target: Gal(b1-3)GlcNAc(b1-3)Gal(b1-4)[Fuc(a1-3)]GlcNAc(b1-6)[Gal(b1-3)GlcNAc(b1-3)]Gal(b1-4)Glc
How it was run: as §1

[20] = target: Gal(b1-3)GlcNAc(b1-3)GalNAc
How it was run: as §1

[21] = target: Gal(b1-3)GlcNAc(b1-6)Gal(b1-4)GlcNAc
How it was run: as §1

[22] = target: Gal(b1-3)GlcNAc(b1-6)GalNAc
How it was run: as §1

Gal(b1-3)GlcNAc6S = target: Gal(b1-3)GlcNAc6S
How it was run: as §1

[23] = target: Gal(b1-3)[Fuc(a1-4)]GlcNAc
How it was run: as §1

[24] = target: Gal(b1-3)[Fuc(a1-4)]GlcNAc(b1-2)Man(a1-3)[Gal(b1-3)[Fuc(a1-4)]GlcNAc(b1-2)Man(a1-6)]Man(b1-4)GlcNAc(b1-4)[Fuc(a1-6)]GlcNAc
How it was run: as §1

[25] = target: Gal(b1-3)[Fuc(a1-4)]GlcNAc(b1-3)Gal(b1-3)[Fuc(a1-4)]GlcNAc
How it was run: as §1

[26] = target: Gal(b1-3)[Fuc(a1-4)]GlcNAc(b1-3)Gal(b1-4)GlcNAc
How it was run: as §1

[27] = target: Gal(b1-3)[Fuc(a1-4)]GlcNAc(b1-3)Gal(b1-4)[Fuc(a1-3)]GlcNAc
How it was run: as §1

[28] = target: Gal(b1-3)[Fuc(a1-4)]GlcNAc(b1-6)GalNAc
How it was run: as §1

[29] = target: Gal(b1-3)[GlcNAc(b1-6)]GalNAc
How it was run: as §1

[30] = target: Gal(b1-3)[Neu5Ac(a2-6)]GalNAc
How it was run: as §1

[31] = target: Gal(b1-3)[Neu5Ac(a2-6)]GlcNAc(b1-6)Gal(b1-4)Glc
How it was run: as §1

[32] = target: Gal(b1-3)[Neu5Ac(b2-6)]GalNAc
How it was run: as §1

Gal(b1-4)Gal = target: Gal(b1-4)Gal
How it was run: as §1

[33] = target: Gal(b1-4)GalNAc(a1-3)[Fuc(a1-2)]Gal(b1-4)GlcNAc
How it was run: as §1

[34] = target: Gal(b1-4)GalNAc(b1-3)[Fuc(a1-2)]Gal(b1-4)GlcNAc
How it was run: as §1

Gal(b1-4)Glc = target: Gal(b1-4)Glc
How it was run: as §1

B1: OrfX (Escherichia coli), Q9X4B6_ECOLX (protein)
chain: MIKIARIAVTLGLLSSLGAQAYAAGLVVNDNDLRNDLAWLSDRGVIHLSLSTWPLSQEEIARALKKAKPSYSSEQVVLARINQRLSALKADFRVTGYTSTDQPGTPQGFGQTQPADNSLGLAFNNSGEWWDVHLQGNVEGGERISNGSRFNANGAYGAVKFWNQWLSFGQVPQWWGPGYEGSLIRGDAMRPMTGFLMQRAEQAAPETWWLRWVGPWQYQISASQMNQYTAVPHAKIIGGRFTFTPFQSLELGASRIMQWGGEGRPQSFSSFWDGFTGHDNTGTDNEPGNQLAGFDFKFKLEPTLGWPVSFYGQMVGEDESGYLPSANMFLGGVEGHHGWGKDTVNWYVEAHDTRTNMSRTNYSYTHHIYKDGYYQQGYPLGDAMGGDGQLIAGKVELITEDNQRWSTRLVYAKVNPENQSINKAFPHADTLKGLQLGWSGDVYQSVRLNTSLWYTNANNSDSDDVGASAGIEIPFSL
glycan array binding signal (z-score) (Gal(a1-4)Gal(b1-4)GlcNAc): -0.022 | glycan array binding signal (z-score) [1]: 0.031 | glycan array binding signal (z-score) [2]: -0.181 | glycan array binding signal (z-score) (Gal(a1-4)GlcNAc): -0.193 | glycan array binding signal (z-score) (Gal(a1-6)Glc): 0.209 | glycan array binding signal (z-score) (Gal(b1-2)Gal): -0.204 | glycan array binding signal (z-score) (Gal(b1-3)Gal): -0.112 | glycan array binding signal (z-score) (Gal(b1-3)Gal(b1-4)GlcNAc): -0.203 | glycan array binding signal (z-score) [3]: -0.325 | glycan array binding signal (z-score) (Gal(b1-3)GalNAc): -0.236 | glycan array binding signal (z-score) [4]: -0.182 | glycan array binding signal (z-score) [5]: -0.321 | glycan array binding signal (z-score) [6]: -0.25 | glycan array binding signal (z-score) [7]: -0.211 | glycan array binding signal (z-score) [8]: -0.306 | glycan array binding signal (z-score) (Gal(b1-3)GlcNAc): -0.132 | glycan array binding signal (z-score) [9]: -0.298 | glycan array binding signal (z-score) [10]: -0.319 | glycan array binding signal (z-score) [11]: -0.164 | glycan array binding signal (z-score) [12]: -0.237 | glycan array binding signal (z-score) [13]: 0.214 | glycan array binding signal (z-score) [14]: -0.334 | glycan array binding signal (z-score) [15]: -0.076 | glycan array binding signal (z-score) [16]: 0.161 | glycan array binding signal (z-score) [17]: -0.06 | glycan array binding signal (z-score) [18]: -0.384 | glycan array binding signal (z-score) [19]: -0.424 | glycan array binding signal (z-score) [20]: -0.321 | glycan array binding signal (z-score) [21]: -0.048 | glycan array binding signal (z-score) [22]: -0.097 | glycan array binding signal (z-score) (Gal(b1-3)GlcNAc6S): 0.065 | glycan array binding signal (z-score) [23]: -0.209 | glycan array binding signal (z-score) [24]: 0.716 | glycan array binding signal (z-score) [25]: -0.339 | glycan array binding signal (z-score) [26]: -0.238 | glycan array binding signal (z-score) [27]: -0.26 | glycan array binding signal (z-score) [28]: -0.074 | glycan array binding signal (z-score) [29]: 0.022 | glycan array binding signal (z-score) [30]: -0.292 | glycan array binding signal (z-score) [31]: -0.207 | glycan array binding signal (z-score) [32]: -0.066 | glycan array binding signal (z-score) (Gal(b1-4)Gal): -0.226 | glycan array binding signal (z-score) [33]: -0.257 | glycan array binding signal (z-score) [34]: -0.145 | glycan array binding signal (z-score) (Gal(b1-4)Glc): 0.071
